Test results as given in the supplement of paper PMC4967469.
pIC50: −log10 of the molar value. The IC50 comes from the fitted curve, where viability falls to half of the control; a limit (>, <) means that the fit lies beyond the doses tested. AUC sums up the same curve from the lowest dose to the 256-fold higher top dose; the more sensitive the line, the further below 1. For some of these results: A top dose marked as inferred is not printed in the source and was worked back from the curve model.

Legend:
Experiment in all cases: Viability of human cancer cell lines after 72 h of drug (GDSC screen)
[1] = compound: O=C(c1ccc(C(=O)N2CCC(N3CCCC3)CC2)c(Nc2ccccc2)c1)N1CCC(N2CCCC2)CC1 [UNC1215]; conditions: top dose 1 µM; top dose inferred
Procedure: (§1)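 Human cancer cell lines in 384-well plates, medium with 10% serum, drug for 72 h over a 256-fold dose range (nine 2-fold or five 4-fold steps up to the top dose). Adherent lines were fixed and stained with the nucleic acid dye Syto60, suspension lines read with resazurin; signal relative to control wells, capped at 0 and 100%. One two-parameter sigmoid per drug and line, fitted in a mixed model over all curves with the slope shared within a line.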

[2] = compound: C=CC(=O)Nc1cc(-n2c(=O)ccc3cnc4ccc(-c5ccc(NS(C)(=O)=O)cc5)cc4c32)ccc1C [BMX-IN-1 (QL-XII-61)]; conditions: top dose 10 µM; top dose inferred
Procedure: as §1

[3] = compound: COc1cccc2cc(-c3nc([C@H]4CC[C@H](C(=O)O)CC4)n4ncnc(N)c34)[nH]c12 [OSI-027]; conditions: top dose 20 µM
Procedure: as §1

[4] = compound: COc1cccc2c1C(=O)c1c(O)c3c(c(O)c1C2=O)C[C@@](O)(C(=O)CO)C[C@@H]3O[C@H]1C[C@H](N)[C@H](O)[C@H](C)O1 [Doxorubicin]; conditions: top dose 1.024 µM
Procedure: as §1

[5] = compound: COC(=O)CNC(=O)C(=O)OC [Dimethyloxalylglycine]; conditions: top dose 4000 µM; top dose inferred
Procedure: as §1

[6] = compound: Cc1cnc(Nc2ccc(F)cc2Cl)nc1-c1c[nH]c(C(=O)N[C@H](CO)c2cccc(Cl)c2)c1 [VX-11e]; conditions: top dose 5.12 µM; top dose inferred
Procedure: as §1

[7] = compound: C=CCNC1=C2C[C@@H](C)C[C@H](OC)[C@H](O)[C@@H](C)/C=C(\C)[C@H](OC(N)=O)[C@@H](OC)/C=C\C=C(/C)C(=O)NC(=CC1=O)C2=O [17-AAG]; conditions: top dose 1 µM
Procedure: as §1

[8] = compound: CN(C)Cc1cccc(N=C(c2ccccc2)c2c(O)[nH]c3cc(C(=O)N(C)C)ccc23)c1 [BIX02189]; conditions: top dose 20 µM; top dose inferred
Procedure: as §1

[9] = compound: CS(=O)(=O)c1ccc(C(=O)Nc2ccc(Cl)c(-c3ccccn3)c2)c(Cl)c1 [Vismodegib]; conditions: top dose 10 µM; top dose inferred
Procedure: as §1

[10] = compound: CCc1cc(-c2n[nH]c(C)c2-c2ccc3c(c2)OCCO3)c(O)cc1O [CCT018159]; conditions: top dose 10 µM; top dose inferred
Procedure: as §1

[11] = compound: Cc1cnc(Nc2ccc(OCCN3CCCC3)cc2)nc1Nc1cccc(S(=O)(=O)NC(C)(C)C)c1 [TG101348]; conditions: top dose 10.24 µM
Procedure: as §1

Cell Line | AUC [1] | pIC50 [1] | AUC [2] | pIC50 [2] | AUC [3] | pIC50 [3] | AUC [4] | pIC50 [4] | AUC [5] | pIC50 [5] | AUC [6] | pIC50 [6] | AUC [7] | pIC50 [7] | AUC [8] | pIC50 [8] | AUC [9] | pIC50 [9] | AUC [10] | pIC50 [10] | AUC [11] | pIC50 [11]
NCI-H1568 (lung adenocarcinoma, adherent) | 0.979 | < 6.00 | 0.939 | < 5.00 | 0.808 | 4.87 | 0.537 | 7.08 | 0.367 | 4.01 | 0.976 | < 5.29 | 0.9 | < 6.00 | 0.974 | < 4.70 | 0.939 | < 5.00 | 0.847 | < 5.00 | 0.891 | < 4.99
SK-MM-2 (myeloma, suspension) | 0.984 | < 6.00 | 0.979 | < 5.00 | 0.21 | 6.78 | 0.876 | < 5.99 | 0.354 | 4.01 | 0.936 | < 5.29 | 0.977 | < 6.00 | 0.91 | < 4.70 | 0.987 | < 5.00 | 0.987 | < 5.00 | 0.54 | 6.08
SU8686 (pancreas, adherent) | 0.984 | < 6.00 | 0.932 | < 5.00 | 0.82 | 4.87 | 0.716 | 6.55 | 0.581 | 3.37 | 0.976 | < 5.29 | 0.605 | 6.90 | 0.978 | < 4.70 | 0.985 | < 5.00 | 0.94 | < 5.00 | 0.986 | < 4.99
Mo-T (hairy cell leukaemia, suspension) | 0.986 | < 6.00 | 0.827 | 5.20 | 0.418 | 6.13 | 0.8 | 6.29 | 0.765 | 2.82 | 0.949 | < 5.29 | 0.907 | < 6.00 | 0.94 | < 4.70 | 0.847 | 5.12 | 0.829 | 5.20 | 0.862 | 5.04
SK-MEL-3 (melanoma, adherent) | 0.983 | < 6.00 | 0.981 | < 5.00 | 0.565 | 5.71 | 0.62 | 6.84 | 0.533 | 3.51 | 0.844 | 5.34 | 0.87 | < 6.00 | 0.915 | < 4.70 | 0.982 | < 5.00 | 0.97 | < 5.00 | 0.827 | 5.12
SW1710 (bladder, adherent) | 0.974 | < 6.00 | 0.797 | 5.31 | 0.298 | 6.48 | 0.309 | 7.74 | 0.496 | 3.61 | 0.937 | < 5.29 | 0.718 | 6.58 | 0.89 | < 4.70 | 0.976 | < 5.00 | 0.929 | < 5.00 | 0.827 | 5.19
WM35 (melanoma, adherent) | 0.985 | < 6.00 | 0.985 | < 5.00 | 0.124 | > 7.11 | 0.623 | – | 0.596 | 3.34 | 0.652 | 6.07 | 0.804 | 6.30 | 0.945 | < 4.70 | 0.876 | < 5.00 | 0.977 | < 5.00 | 0.778 | 5.38
PL4 (pancreas, adherent) | 0.985 | < 6.00 | 0.986 | < 5.00 | 0.931 | < 4.70 | 0.746 | 6.48 | 0.479 | 3.66 | 0.969 | < 5.29 | 0.884 | < 6.00 | 0.973 | < 4.70 | 0.963 | < 5.00 | 0.955 | < 5.00 | 0.954 | < 4.99
CAS-1 (glioma, adherent) | 0.977 | < 6.00 | 0.936 | < 5.00 | 0.709 | 5.21 | 0.679 | 6.61 | 0.51 | 3.57 | 0.919 | < 5.29 | 0.888 | < 6.00 | 0.925 | < 4.70 | 0.981 | < 5.00 | 0.956 | < 5.00 | 0.757 | 5.32
ES8 (Ewing sarcoma, adherent) | 0.986 | < 6.00 | 0.949 | < 5.00 | 0.167 | 6.87 | 0.352 | 7.59 | 0.671 | 3.14 | 0.915 | < 5.29 | 0.599 | 6.94 | 0.848 | 4.88 | 0.978 | < 5.00 | 0.88 | 5.04 | 0.641 | 5.82
NY (osteosarcoma, adherent) | 0.987 | < 6.00 | 0.976 | < 5.00 | 0.986 | < 4.70 | 0.718 | 6.58 | 0.552 | 3.46 | 0.988 | < 5.29 | 0.713 | 6.61 | 0.989 | < 4.70 | 0.955 | < 5.00 | 0.872 | 5.03 | 0.98 | < 4.99
